Measured values published in PubChem BioAssay AID1159614 (National Center for Advancing Translational Sciences (NCATS), 2016).
Out of some 45,000 compounds screened, about 65 (0.1%) were called active. Calls follow the shape of the dose curve; as a rule, active = well fitted activation curve with a large enough effect; inconclusive = small, poorly fitted or top-dose-only effect; inactive = no such curve, though single readings can be large or run the other way. Some of the results follow.

The compounds below were run against Galactocerebrosidase (Homo sapiens) (UniProt P54803) (assay: A Novel Cell-Based Assay to Identify Small Molecules for B -Galactocerebrosidase). Settings: 145M-Twi-hGALC-G270D cells (Twitcher mouse brain line with human GALC G270D), HMU-beta-Gal fluorescence, 48 h; series mostly up to 57.5 µM; activation: at the top concentration.
UniProt P54803, sequence (P54803 whole entry, looked up): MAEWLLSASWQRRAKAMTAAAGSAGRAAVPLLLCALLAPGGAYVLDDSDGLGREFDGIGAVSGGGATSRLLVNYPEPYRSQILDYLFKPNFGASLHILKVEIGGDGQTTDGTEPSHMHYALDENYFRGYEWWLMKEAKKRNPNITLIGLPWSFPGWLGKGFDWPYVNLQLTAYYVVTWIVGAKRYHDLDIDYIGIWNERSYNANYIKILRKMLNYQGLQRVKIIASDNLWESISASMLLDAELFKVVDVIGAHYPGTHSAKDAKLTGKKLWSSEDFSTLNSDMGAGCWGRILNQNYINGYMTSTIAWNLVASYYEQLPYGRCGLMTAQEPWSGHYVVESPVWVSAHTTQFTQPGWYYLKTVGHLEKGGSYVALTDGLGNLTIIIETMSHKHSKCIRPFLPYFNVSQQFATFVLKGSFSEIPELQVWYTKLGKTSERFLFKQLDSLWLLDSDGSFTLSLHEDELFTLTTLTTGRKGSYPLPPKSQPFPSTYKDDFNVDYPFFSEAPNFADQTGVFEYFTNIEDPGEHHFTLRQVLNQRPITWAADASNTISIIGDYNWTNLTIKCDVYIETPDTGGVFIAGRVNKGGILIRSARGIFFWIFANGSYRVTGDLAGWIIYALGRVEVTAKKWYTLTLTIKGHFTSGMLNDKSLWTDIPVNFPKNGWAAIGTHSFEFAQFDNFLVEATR
Procedure, shortened: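 Brain-derived Twitcher mouse 145M-Twi cells stably expressing human GALC-G270D or wild-type GALC, treated live, then residual GALC activity read by fluorescence of HMU-b-Gal substrate (0.1 mM final) in citrate-phosphate buffer pH 5.2 with sodium taurocholate. Signal increase indicates enhancement.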
Also: 0% is about no effect; nearly all actives have a fitted effect of over 65% in size.

activation, inactive:
CCN(Cc1ccccc1)Cc1c(O)ccc2c(=O)c(-c3ccc(Cl)cc3)coc12 -10.4%, Cc1ccc(-c2cc(-c3coc4ccc(Cl)cc4c3=O)c3c(n2)-c2ccccc2OC3)cc1 -5.55%, O=C(NCc1ccccc1Cl)c1cnc(N2CCOCC2)c2ccccc12 -4.71%, COc1ccc(OC)c(NC(=O)CC2C(=O)NCCN2C(=O)C(F)(F)F)c1 (configuration not stated) -22.2%, CCOc1ccc(NC(=O)CCc2nc3cccnc3n2-c2ccccc2)cc1 -17.4%, CCc1ccc(NC(=O)CSc2nc3c(oc4ccccc43)c(=O)n2-c2cccc(C)c2)cc1 -10.7%, O=C(Nc1nc2ccc(Cl)cc2s1)c1cc(=O)c2ccccc2o1 -8.09%, CCc1cccc(CC)c1NC(=O)C(Cc1ccccc1)NS(=O)(=O)c1cccc2nsnc12 (configuration not stated) -15.2%, COc1ccc2c(c1)c(CC(=O)Nc1ccc(C(C)=O)cc1)c(C)n2C(=O)c1ccc(Cl)cc1 -15.2%, COc1ccc(NC(=O)c2oc3ccccc3c2NC(=O)C23CC4CC(CC(C4)C2)C3)c(OC)c1 -7.39%, Cc1ccc(NC(=O)c2oc3ccccc3c2NC(=O)c2ccc(F)c(F)c2)cc1 -6.53%, COc1ccc(S(=O)(=O)NCCS(=O)(=O)N2CCN(c3ccccc3)CC2)cc1OC -8.46%, CN1CCc2c(sc(NC(=O)CSc3ccc(F)cc3)c2-c2nc3ccccc3s2)C1 -13.4%, COc1cccc(C(=O)NC(=NCCc2c[nH]c3ccc(OC)cc23)Nc2nc(C)cc(C)n2)c1 3.93%, CCN1C(C(=O)c2ccccc2)=C(OC(=O)COc2ccc(OC)cc2)c2ccccc2S1(=O)=O -6.25%, CC(C)CN(CCCNC(=O)c1cc(=O)[nH]c2ccc(S(=O)(=O)N3CCCC3)cc12)CC(C)C 1.05%, Cc1ccc(CNC(=O)CCCCCn2c(=O)c3sccc3n(CC(=O)Nc3ccc(C)c(F)c3)c2=O)cc1 -6.77%, Cc1ccc(NC(=O)c2ccc(CN3CCN(C)CC3)cc2)cc1Nc1nccc(-c2cccnc2)n1 -14.2%, CCc1cnc2c(c1SCc1ccccc1C)c(=O)n(C)c(=O)n2C -12.7%, Cc1cc(F)ccc1NC(=O)c1c(C)oc2c1C1=NCCN1C=N2 -7.93%, O=C(NCc1ccc(Cl)cc1Cl)c1cccc(N2CCCS2(=O)=O)c1 -6.45%, CCn1cc2nc(SCc3cccc(C(F)(F)F)c3)n(Cc3ccc(C)cc3)c(=O)c2n1 -7.62%, COc1ccccc1-n1c(=O)n(C)c2c(C(N)=O)nc(-c3cc(OC)c(OC)c(OC)c3)nc21 8.7%, Cc1cc(C)c2c(N)c(C(=O)Nc3ccccc3C(F)(F)F)sc2n1 -12%, COc1cc2c(cc1NC(=O)C(C)Oc1ccccc1)oc1ccccc12 (configuration not stated) -11%, CCc1ccccc1NC(=O)CSc1nc2c(c(=O)[nH]1)CN(Cc1ccccc1OC)CC2 -10.4%, CCCSc1ncc(Cl)c(C(=O)N2CCN(c3ccc(OC)cc3)CC2)n1 -15.1%, CN(C(=O)c1nn(C)c2c1CS(=O)(=O)c1ccccc1-2)c1cccc(Cl)c1 -10.2%, COc1ccc(OC)c(NC(=O)COCc2cc(-c3ccc(F)cc3)on2)c1 -5.18%, CCC1CN(C(=O)Nc2cc(Cl)ccc2C(=O)OC)c2ccccc2S1 (configuration not stated) 0.367%, Cc1ccc(N2C(=O)N(Cc3cccc(Cl)c3)c3ccccc3S2(=O)=O)cc1 2.16%, Cc1ccc(C)c(Cn2c(=O)n(CCCC(=O)NCc3ccc4c(c3)OCO4)c(=O)c3sccc32)c1 -34.5%, CCOC(=O)c1sc(N2C(=O)c3oc4ccc(F)cc4c(=O)c3C2c2ccc(O)cc2)nc1C (configuration not stated) -10.2%, CCOC(=O)c1ccc(NC(=O)c2c(NCc3cccc(OC)c3OC)sc3c2CCC3)cc1 -3.95%, CC(C)Oc1ccc(C(=O)N2CCCCC2CCN2CCCCC2)cc1 (configuration not stated) -3.37%, COc1ccccc1NC(=O)Cn1c(=O)n(-c2ccc(C)cc2)c(=O)c2c1cnn2C -16.4%, CCOc1ccc(NC(=O)c2oc3ccccc3c2NC(=O)c2cc3ccccc3o2)cc1 -9.62%, CCOC(=O)CSc1nc2cc3c(cc2c(=O)n1CCCCCC(=O)NCc1ccc(OC)cc1)OCO3 1.35%, CN(C)c1ccc(CNC(=O)c2ccc3nc(CCc4ccccc4)oc3c2)cc1 -16.9%, Cc1ccc(N2C(=O)CSC23C(=O)N(CC(=O)Nc2ccccc2F)c2ccccc23)cc1C (configuration not stated) -25.6%, Cc1ccc(CNC(=O)c2ccc(CS(=O)(=O)c3ccccc3C)o2)cc1 -6.77%, COc1ccc(N2CCN(CCCNC(=O)c3ccc4nc(N5CCCCC5)sc4c3)CC2)cc1 -2.96%, Cc1ccc(/C=C/c2onc(C)c2S(=O)(=O)N2CCC(C(=O)N(CCC(C)C)Cc3ccco3)CC2)cc1 -8.73%, CCc1cccc(NC(=O)CCNS(=O)(=O)c2ccc3c(c2)CCN3C(C)=O)c1 -18.6%, O=C(Nc1ccc(Br)cc1)c1cccc(S(=O)(=O)N2CCc3ccccc32)c1 7.08%, CC(C)(C)c1ccc(-c2nnc(-c3ccccc3NC(=O)c3ccc(F)cc3F)o2)cc1 2.61%, COc1ccc(-n2nc(C(=O)Nc3cccc(Cl)c3)c3c4ccccc4n(C)c3c2=O)cc1Cl -11%, O=C(CSc1oc(-c2ccco2)nc1S(=O)(=O)c1ccc(Cl)cc1)Nc1ccc(F)cc1 -10.7%, CCCCCCC1CCC(C(=O)NC(C(=O)O)C(C)C)CC1 (configuration not stated) -4.09%, COc1ccc2c(Sc3ccc(Cl)cc3)c(C(=O)N3CCCCC3)[nH]c2c1 -30.2%, COc1ccc(-c2nc3ccccc3n3c(-c4ccccc4)c4c(=O)n(C)c(=O)n(C)c4c23)cc1 -22.1%, CC(C)c1ccc(NC(=O)CSC2=Nc3ccccc3C3=NC(CC(=O)NC4CCCCC4)C(=O)N23)cc1 (configuration not stated) -44.4%, Cc1ccc(C(=O)N2CCC(C(N)=O)CC2)cc1NC(=O)c1nsc2ccccc12 -8.77%, CCC(=O)Nc1ccc(O)cc1 -18.3%, COc1ccc(C2CC(=O)N(CC(=O)Nc3cccc(C)c3C)c3ccccc3S2)cc1OC (configuration not stated) -8.71%, CN1CCN(C2Cc3ccccc3Sc3ccc(Cl)cc32)CC1 (configuration not stated) 4.94%, COc1ccccc1CNC(=O)CCCn1c(=O)c2ccccc2n(Cc2ccc(C)cc2)c1=O -22.4%, COc1ccc(CN2CCCN(CC(=O)Nc3ccc4c(c3)OCCO4)S2(=O)=O)cc1 -14.3%, Cc1ccc(-c2noc(-c3nnn(CC(=O)Nc4cc(Cl)ccc4C)c3N)n2)cc1 -12.3%, CC1CCN(S(=O)(=O)c2cc(C(=O)N3CCN(c4ccccc4F)CC3)n(C)c2)CC1 -7.5%, Cc1nn(C)c2c1c(C(F)(F)F)cc(=O)n2CC(=O)N1CCC(C)CC1 2.97%, Cc1ccc(CSc2nc3cccnc3n2Cc2ccc(C(=O)NCCc3cccs3)cc2)cc1 -33.5%, COc1ccc(N(CC(=O)NCCc2ccc(Cl)cc2)S(=O)(=O)c2c(C)nn(C)c2C)cc1 -12.8%, CCOC(=O)C1CCN(C(=O)c2nn(-c3ccc(OC)cc3)c(=O)c3c2c2ccccc2n3C)CC1 -12%, Cc1ccc(Sc2ccc(N3CCCC(C(=O)Nc4ccc(F)cc4F)C3)nn2)cc1 (configuration not stated) -15.8%, CCCCn1c(SCC(=O)NCc2ccc(C)cc2)nc2c(sc3ccccc32)c1=O 12.6%, COCCN1CCN(Cc2ccc(C(=O)NC(C)C)cc2)C(=O)C1=O -19.4%, COc1ccc(NC(=O)c2oc3ccccc3c2NC(=O)Cc2cccs2)c(OC)c1 -3.93%, COc1ccc(CNC(=O)C(C)n2c(=O)cc(C)c3c(C)nn(-c4ccccc4)c32)cc1 (configuration not stated) -21.9%, CCC1CN(C(=O)C2CCN(S(=O)(=O)c3c(C)noc3/C=C/c3ccccc3F)CC2)c2cc(C)ccc2O1 (configuration not stated) -1.53%, CCN1CCN(Cc2c(O)ccc3cc(-c4ccc(OC)cc4)c(=O)oc23)CC1 -28.3%, COc1ccc(C)cc1Nc1nc(N)c2cc(OC)c(OC)cc2n1 -5.09%, CC(=O)c1cccc(NC(=O)c2nc(-c3ccccc3)n(-c3ccccc3C)n2)c1 -26.9%, COc1ccc(C2c3cccn3CCN2S(=O)(=O)c2ccc([N+](=O)[O-])cc2)cc1 (configuration not stated) -16.3%, CCc1cccc(NC(=O)C2CCN(S(=O)(=O)c3cccc(-c4noc(C)n4)c3)CC2)c1 1.68%, Cc1nc2c(c(C)nn2-c2ccccc2)c(C)c1CCC(=O)NCc1ccccc1 -1.09%, NS(=O)(=O)c1cc2c(cc1Cl)NC(C(Cl)Cl)NS2(=O)=O (configuration not stated) -10.8%, CCN1CCN(c2cc(C)c3cc(NC(=O)c4ccc(OC)c(OC)c4)ccc3n2)CC1 -14%, Cc1ccn2cc(-c3ccc(C)c(NS(=O)(=O)c4ccc(Cl)cc4)c3)nc2c1 -17.8%, Cc1nnc(N2CCCC(C(=O)NCCc3ccccc3)C2)c2nn(-c3ccccc3)c(C)c12 (configuration not stated) 1.73%, Cc1ccc(S(=O)(=O)c2nc(-c3cccc(Cl)c3)oc2NCc2ccccc2)cc1 -17.2%, CCOC(=O)Cn1c(=O)oc2cc(S(=O)(=O)N3CCN(c4cc(C)ccc4C)CC3)ccc21 -22.9%, CN(C)CCNC(=O)c1ccc2c(c1)N(Cc1c(F)cccc1Cl)C(=O)c1ccccc1S2 -9.08%, CN[C@@H]1[C@H](O)[C@H](NC)[C@H]2O[C@@]3(O)C(=O)C[C@@H](C)O[C@H]3O[C@@H]2[C@H]1O -15.8%, COCCCNC(=O)c1ccc2nc(CCc3ccccc3)oc2c1 -7.58%, CCC(=O)N1CCc2cc(S(=O)(=O)NC(C(=O)Nc3cc(OC)cc(OC)c3)C(C)C)ccc21 (configuration not stated) -17.4%, CCOC(=O)c1c(NC(=O)c2ccc(C)c(C)c2)sc2c1CCCCC2 -1.82%, CCc1ccc(C(=O)NC2=NC(c3ccccc3F)CC(=O)N2)cc1 (configuration not stated) -5.9%, Cn1cnc(S(=O)(=O)N2CCCC(C(=O)Nc3ccc(OC(F)(F)F)cc3)C2)c1 (configuration not stated) -3.11%, O=C(Nc1ccccc1Br)N1CCC(CN2CCCC2)CC1 -16.9%, Cc1ccc(OCC(=O)Nc2ccc(-c3nc4ccccc4o3)cc2)c(C)c1 -10.2%, CCOc1ccc(OCC)c(NS(=O)(=O)c2ccc3c(c2)CCN3C(=O)C2CCC2)c1 -6.8%
